According to the antibiotic and cytotoxicity screens of Wong et al. (2023):
This is one part of the list.

Experiments:
HSkMC = human skeletal muscle cells; assay: cytotoxicity call (relative viability < 0.9); conditions: 10 µM
S. aureus RN4220 = assay: growth inhibition call (relative growth <= 0.2); conditions: 50 µM

| SMILES | cytotoxicity call (HSkMC) | growth inhibition call (S. aureus RN4220) |
| --- | --- | --- |
| Cc1noc(C)c1S(=O)(=O)Nc1ccc2c(c1)CC(=O)N([C@H](C)CO)C[C@H](C)[C@@H](CN(C)Cc1ccccc1)O2 | inactive | inactive |
| COc1ccc(NC(=O)Nc2ccc3c(c2)[C@@H]2C[C@H](CC(=O)N4CCN(C)CC4)O[C@@H](CO)[C@@H]2O3)cc1 | inactive | inactive |
| Cc1cc(=O)n2ncnc2n1CC(=O)NN | inactive | inactive |
| O=C1c2ccccc2C(=O)c2c1ccc(O)c2O | inactive | inactive |
| C[C@H]1CN([C@@H](C)CO)C(=O)c2cc(NC(=O)CCN3CCOCC3)ccc2O[C@@H]1CN(C)C(=O)Nc1ccc2c(c1)OCO2 | inactive | inactive |
| O=C(C[C@@H]1C=C[C@@H](NC(=O)C2CC2)[C@H](CO)O1)NCCCN1CCOCC1 | inactive | inactive |
| C[C@@H]1CCCCO[C@@H](CN(C)S(C)(=O)=O)[C@@H](C)CN([C@H](C)CO)C(=O)c2cc(NS(C)(=O)=O)ccc2O1 | inactive | inactive |
| Cc1noc(C)c1S(=O)(=O)Nc1ccc2c(c1)C(=O)N([C@H](C)CO)C[C@H](C)[C@@H](CN(C)Cc1ccc3c(c1)OCO3)O2 | inactive | inactive |
| C[C@@H]1CN([C@@H](C)CO)C(=O)c2cc(NC(=O)Cc3cn(C)c4ccccc34)ccc2O[C@@H]1CN(C)S(=O)(=O)c1cn(C)cn1 | inactive | inactive |
| COc1ccc(CN(C)C[C@@H]2Oc3ccc(NS(=O)(=O)c4cn(C)cn4)cc3C(=O)N([C@@H](C)CO)C[C@@H]2C)cc1 | inactive | inactive |
| Cc1noc(C)c1NC(=O)Nc1ccc2c(c1)CC(=O)N([C@H](C)CO)C[C@@H](C)[C@H](CN(C)Cc1ccc(C(F)(F)F)cc1)O2 | inactive | inactive |
| Cc1noc(C)c1S(=O)(=O)Nc1ccc2c(c1)C(=O)N([C@H](C)CO)C[C@H](C)[C@@H](CN(C)C(=O)Nc1ccccc1)OCCCC[C@H](C)O2 | inactive | inactive |
| O=C(C[C@@H]1CC[C@@H]2[C@H](COC[C@@H](O)CN2C(=O)Nc2ccc(Cl)c(Cl)c2)O1)NCc1ccc(Cl)c(Cl)c1 | inactive | inactive |
| C[C@@H]1CN([C@@H](C)CO)C(=O)Cc2cc(NC(=O)Cc3ccccc3)ccc2O[C@H]1CN(C)C(=O)Nc1ccc(C(F)(F)F)cc1 | inactive | inactive |
| CNCc1cc(C)nn1C | inactive | inactive |
| Cc1cnc(CNC(=O)c2c(=O)c3ccc(N4CCCN(C)CC4)nc3n3c2sc2ccccc23)cn1 | inactive | inactive |
| [N-]=[N+]=Nc1ccccc1C[C@@]1(C(=O)NCc2ccccc2)N=C(c2ccc(OCCCO)cc2)O[C@@H]1c1ccccc1 | inactive | inactive |
| O=C1CN(S(=O)(=O)Cc2ccccc2)C[C@H]2[C@@H](c3ccc(C#Cc4ccc(F)cc4)cc3)[C@H](CO)N12 | inactive | inactive |
| Cc1noc(C)c1S(=O)(=O)Nc1ccc2c(c1)CC(=O)N([C@H](C)CO)C[C@@H](C)[C@@H](CN(C)S(=O)(=O)c1cccs1)O2 | inactive | inactive |
| C[C@H](CO)N1C[C@H](C)[C@@H](CN(C)C(=O)Nc2ccccc2)Oc2ccc(NC(=O)CCCCCC(=O)Nc3ccccc3N)cc2CC1=O | inactive | inactive |
| C[C@@H]1CN([C@@H](C)CO)C(=O)c2cc(NS(=O)(=O)c3ccc(F)cc3)ccc2O[C@@H](C)CCCCO[C@@H]1CN(C)S(=O)(=O)c1ccc(Cl)cc1 | inactive | inactive |
| C[C@H]1CN([C@@H](C)CO)C(=O)c2cc(NC(=O)Nc3ccccc3)ccc2O[C@@H]1CN(C)Cc1ccc(Cl)c(Cl)c1 | inactive | inactive |
| C[C@@H]1CN([C@H](C)CO)C(=O)Cc2cc(NC(=O)Cc3ccccc3)ccc2O[C@H]1CN(C)Cc1ccc(-c2ccccc2)cc1 | inactive | inactive |
| O=C(C[C@H]1C[C@H]2c3cc(NC(=O)c4ccc5c(c4)OCO5)ccc3O[C@H]2[C@H](CO)O1)NCc1cccnc1 | inactive | inactive |
| COc1ccc(NC(=O)Nc2ccc3c(c2)CC(=O)N([C@@H](C)CO)C[C@H](C)[C@@H](CN(C)Cc2ccc(-c4ccccc4)cc2)O3)cc1 | inactive | inactive |
| C[C@H](CO)N1C[C@H](C)[C@@H](CN(C)S(=O)(=O)c2ccc(F)cc2)Oc2cc(C#Cc3ccc(F)cc3)ccc2S1(=O)=O | inactive | inactive |

| SMILES | cytotoxicity call (HSkMC) | growth inhibition call (S. aureus RN4220) |
| --- | --- | --- |
| COc1cccc(S(=O)(=O)Nc2ccc3c(c2)[C@@H]2C[C@@H](CC(=O)NCCc4ccccc4)O[C@@H](CO)[C@@H]2O3)c1 | inactive | inactive |
| CCCC(=O)Nc1ccc2c(c1)OC[C@H](C)N(Cc1ccc(-c3ccccn3)cc1)C[C@@H](C)[C@H](OC)CN(C)C2=O | inactive | inactive |
| C[C@H]1[C@H]([Si](C)(C)F)[C@@H](CCO)O[C@]12C(=O)N(Cc1ccccc1)c1ccc(N3C(=O)c4ccccc4Oc4ccccc43)cc12 | inactive | inactive |
| Cc1noc(C)c1S(=O)(=O)Nc1ccc2c(c1)C(=O)N([C@H](C)CO)C[C@H](C)[C@@H](CN(C)Cc1ccc(C(=O)O)cc1)O2 | inactive | inactive |
| C[C@@H]1CN([C@H](C)CO)C(=O)Cc2cc(NC(=O)Nc3cccc4ccccc34)ccc2O[C@@H]1CN(C)C(=O)NC1CCCCC1 | inactive | inactive |
| CC(C)CC#Cc1cnc2c(c1)C(=O)N([C@@H](C)CO)C[C@@H](C)[C@@H](CN(C)C(=O)c1ccc3c(c1)OCO3)O2 | inactive | inactive |
| C[C@H](CO)N1C[C@H](C)[C@@H](CN(C)C(=O)NC2CCCCC2)OCCCC[C@H](C)Oc2ccc(NS(=O)(=O)c3cccs3)cc2C1=O | inactive | inactive |
| NCc1ccc(-c2ccc(Br)cc2)cc1 | inactive | inactive |
| c1ccc2c(CSc3nc4ccccc4o3)cccc2c1 | inactive | inactive |
| O=C(O)Cc1ccc(CO)cc1 | inactive | inactive |
| COc1ccc(NC(=O)Nc2ccc3c(c2)C(=O)N([C@H](C)CO)C[C@@H](C)[C@H](CN(C)Cc2ccc(Cl)c(Cl)c2)O3)cc1 | inactive | inactive |
| CC(C[N+](C)(C)C)OC(N)=O.[Cl-] (configuration not stated) | inactive | inactive |
| C[C@@H]1CCCCO[C@H](CN(C)CC2CCCCC2)[C@@H](C)CN([C@H](C)CO)C(=O)c2cc(NS(=O)(=O)c3ccc(Cl)cc3)ccc2O1 | inactive | inactive |
| COc1ccc(S(=O)(=O)Nc2ccc3c(c2)CC(=O)N([C@@H](C)CO)C[C@@H](C)[C@H](CN(C)Cc2ccc(C(=O)O)cc2)O3)cc1 | inactive | inactive |
| C[C@H](CO)N1C[C@H](C)[C@H](CN(C)C(=O)Nc2ccc(F)cc2)OCCCC[C@H](C)Oc2ccc(NC(=O)C3CCC3)cc2C1=O | inactive | inactive |
| COCCCNC(=O)[C@@]1(Sc2ccc(C)cc2)CC(=O)N(Cc2cc(C(F)(F)F)cc(C(F)(F)F)c2)[C@@H]1c1ccc(CO)cc1I | inactive | inactive |
| Cc1noc(C)c1NC(=O)Nc1ccc2c(c1)C(=O)N([C@H](C)CO)C[C@@H](C)[C@H](CN(C)C(=O)Nc1ccc(C(F)(F)F)cc1)OCCCC[C@H](C)O2 | inactive | inactive |
| C[C@H](CO)N1C[C@H](C)[C@@H](CN(C)Cc2ccc(C(=O)O)cc2)Oc2ccc(NC(=O)Cn3cnnn3)cc2CC1=O | inactive | inactive |
| C[C@@H]1CN([C@@H](C)CO)C(=O)c2cccc(NS(=O)(=O)c3cccs3)c2O[C@H]1CN(C)S(=O)(=O)c1ccccc1 | inactive | inactive |
| C[C@@H]1CN([C@@H](C)CO)C(=O)c2cccc(NC(=O)Nc3ccc4c(c3)OCO4)c2O[C@H]1CN(C)S(=O)(=O)c1cn(C)cn1 | inactive | inactive |
| Cc1ccc(S(=O)(=O)N2C[C@@H](O)COC[C@H]3O[C@H](CC(=O)NCCCN(C)C)CC[C@@H]32)cc1 | inactive | inactive |
| C[C@@H]1CN([C@@H](C)CO)C(=O)c2c(c3ccccc3n2C)-c2ccccc2CO[C@@H]1CN(C)C(=O)[C@H](C)c1ccccc1 | inactive | inactive |
| C[C@@H]1CN([C@H](C)CO)C(=O)c2cc(NS(=O)(=O)c3ccc(F)cc3)ccc2O[C@H]1CN(C)S(=O)(=O)c1ccc(F)cc1 | inactive | inactive |
| C[C@H](CO)N1C[C@H](C)[C@@H](CN(C)CC2CC2)OCCCC[C@H](C)Oc2ccc(NC(=O)Nc3ccc4c(c3)OCO4)cc2C1=O | inactive | inactive |
| C[C@@H]1CN([C@@H](C)CO)C(=O)c2cc(NC(=O)Cn3cnnn3)ccc2O[C@H]1CN(C)Cc1ccc2c(c1)OCO2 | inactive | inactive |
